Data reported in paper PMC10380868, “Trapa bispinosa Roxb. Pericarp Extract Exerts 5α-Reductase Inhibitory Activity in Castrated Benign Prostatic Hyperplasia Model Mice” (International Journal of Molecular Sciences, 2023).

Test system: AR-Luc/LNCaP cells
Format: cell-based

Structure (SMILES) | inhibition of DHT-induced AR-Luc reporter activity | inhibition of testosterone-induced AR-Luc reporter activity | stimulation of AR-Luc reporter activity by agonist | time to maximal AR-Luc reporter activity
O=c1oc2c(O)c(O)cc3c(=O)oc4c(O)c(O)cc1c4c23 [EA, ellagic acid] | suppressed to control levels | – | – | –
CC(C)(C)NC(=O)[C@H]1CC[C@H]2[C@@H]3CC[C@H]4NC(=O)C=C[C@]4(C)[C@H]3CC[C@]12C [Fin, finasteride] | – | suppressed | – | –
CC(C)C(=O)Nc1ccc([N+](=O)[O-])c(C(F)(F)F)c1 [Flu, flutamide] | completely | completely | – | –
C[C@]12CC[C@H]3[C@@H](CCC4=CC(=O)CC[C@@]43C)[C@@H]1CC[C@@H]2O [testosterone] | – | – | delayed stimulation | 24 h
